Values marked as one replicate rest on one cluster of the flow cell; about a third of the high ones do not repeat.
These sequences were tested on ATP (assay: switch fluorescence ratio, 500 uM ATP over buffer (Cy3 cluster intensity, sum of 5 cycles each) (fold (ratio)); higher = stronger signal-on switching upon ATP binding; sequences stand for … in TCGTCGGCAGCGTCAGATGTGTATAAGAGACAGTTTTTTTTTTTTTTTTTTTTTTTTT…TC). Conditions: aptamer strand: ATP DNA aptamer (quencher-CACCTGGGGGAGTATTGCGGAGGAAGG + anchor), 100 nM annealed; ATP concentration: 500 uM; one replicate.
In short: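 The quencher-labelled ATP aptamer, at 100 nM, was annealed to Cy3-labelled switching-strand clusters on a modified Illumina MiSeq flow-cell. The clusters were imaged in selection buffer, then after 15 min with 500 uM ATP at 22 °C, and this buffer/ATP cycle ran five times with NaOH stripping and re-annealing between runs. Per-cluster fluorescence ratios, summed target-cycle over summed buffer-cycle Cy3 intensity, were averaged per switch-domain sequence. Clusters outside 100-1000 RFU were excluded.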
Sequence AACTAGGTGC has a switch fluorescence ratio of 1.67.
In the case of AACTATTAAT, the switch fluorescence ratio is reported as 1.04.
Sequence AACTATTCTC has a switch fluorescence ratio of 0.969.
For AACTCGGCGC, the switch fluorescence ratio was 1.07.
AACTCTCGTT gave a switch fluorescence ratio of 0.976.
Work on AACTGAAAGG yielded a switch fluorescence ratio of 0.949.
AACTGCAACC was tested, and the switch fluorescence ratio was 1.45.
Sequence AACTGGATCA has a switch fluorescence ratio of 1.01.
Sequence AACTGGGGCC has a switch fluorescence ratio of 0.992.
In the case of AACTGGTAAG, the switch fluorescence ratio is reported as 1.04.
In the case of AACTGTAAGG, the switch fluorescence ratio is reported as 1.
AACTGTCAGT was tested, and the switch fluorescence ratio was 1.02.
With AACTGTTTGG the switch fluorescence ratio was 0.995.
Work on AACTGTTTTT yielded a switch fluorescence ratio of 0.998.
For AACTTACCG, the switch fluorescence ratio was 1.11.
AACTTACGTG gave a switch fluorescence ratio of 1.15.
Work on AACTTAGAGA yielded a switch fluorescence ratio of 1.01.
AACTTAGCAA showed a switch fluorescence ratio of 1.51.
AACTTAGTGT was tested, and the switch fluorescence ratio was 1.03.
For AACTTATTCG, the switch fluorescence ratio was 1.01.
Work on AACTTCGTAG yielded a switch fluorescence ratio of 1.06.
For AACTTCTAGC, the switch fluorescence ratio was 1.02.
AACTTCTGTG was tested, and the switch fluorescence ratio was 0.977.
Sequence AACTTGCCTT has a switch fluorescence ratio of 1.08.
Work on AACTTGCGCC yielded a switch fluorescence ratio of 1.02.
With AACTTGTCGT the switch fluorescence ratio was 0.98.
AACTTTTTTC showed a switch fluorescence ratio of 1.05.
AAGAAAATTT was tested, and the switch fluorescence ratio was 1.06.
AAGAAACATG showed a switch fluorescence ratio of 1.01.
Sequence AAGAAAGCGA has a switch fluorescence ratio of 0.897.
With AAGAAAGTAC the switch fluorescence ratio was 1.15.
With AAGAAATAAT the switch fluorescence ratio was 1.
In the case of AAGAACCCAT, the switch fluorescence ratio is reported as 1.04.
AAGAACCGAC showed a switch fluorescence ratio of 2.46.
AAGAATAACT was tested, and the switch fluorescence ratio was 0.993.
AAGAATTCGA showed a switch fluorescence ratio of 1.02.
AAGAATTGAC gave a switch fluorescence ratio of 1.22.
In the case of AAGAATTTTA, the switch fluorescence ratio is reported as 1.03.
AAGACAAAGG showed a switch fluorescence ratio of 0.984.
In the case of AAGACACTGC, the switch fluorescence ratio is reported as 0.983.
With AAGACCGCAT the switch fluorescence ratio was 1.47.
AAGACGAATA was tested, and the switch fluorescence ratio was 0.968.
For AAGACGTGCC, the switch fluorescence ratio was 1.02.
AAGACTAATT showed a switch fluorescence ratio of 0.995.
Work on AAGACTTTCT yielded a switch fluorescence ratio of 1.02.
AAGAGAGTCT gave a switch fluorescence ratio of 0.886.
AAGAGCAACC was tested, and the switch fluorescence ratio was 1.15.
For AAGAGCCTTG, the switch fluorescence ratio was 0.965.
AAGAGGAGTC gave a switch fluorescence ratio of 0.986.
In the case of AAGAGGATAC, the switch fluorescence ratio is reported as 1.03.
With AAGAGGCAGT the switch fluorescence ratio was 1.02.
For AAGAGGGAGA, the switch fluorescence ratio was 0.997.
Sequence AAGAGGTAGG has a switch fluorescence ratio of 0.987.
AAGATATATG gave a switch fluorescence ratio of 1.
Work on AAGATATCGC yielded a switch fluorescence ratio of 0.989.
AAGATCA was tested, and the switch fluorescence ratio was 1.
In the case of AAGATCGCGT, the switch fluorescence ratio is reported as 1.01.
AAGATGACAG showed a switch fluorescence ratio of 0.992.
In the case of AAGATGATGA, the switch fluorescence ratio is reported as 1.02.
In the case of AAGATGATGC, the switch fluorescence ratio is reported as 1.02.
AAGATGCATG showed a switch fluorescence ratio of 1.02.
For AAGATGCGTG, the switch fluorescence ratio was 0.953.
With AAGATGGATG the switch fluorescence ratio was 0.952.
Work on AAGATTCTTG yielded a switch fluorescence ratio of 0.988.
For AAGATTGGGA, the switch fluorescence ratio was 1.03.
AAGATTTTCA gave a switch fluorescence ratio of 0.981.
In the case of AAGCAAATTA, the switch fluorescence ratio is reported as 1.03.
AAGCAAGCGG was tested, and the switch fluorescence ratio was 1.04.
Work on AAGCACGGAG yielded a switch fluorescence ratio of 1.07.
For AAGCACTTTA, the switch fluorescence ratio was 1.16.
With AAGCAGACCG the switch fluorescence ratio was 0.974.
AAGCAGCGT gave a switch fluorescence ratio of 1.01.
In the case of AAGCAGGTCG, the switch fluorescence ratio is reported as 1.02.
AAGCATCCAC gave a switch fluorescence ratio of 1.23.
For AAGCATTCAT, the switch fluorescence ratio was 1.01.
Work on AAGCCGGTCA yielded a switch fluorescence ratio of 1.03.
Work on AAGCCTAGAG yielded a switch fluorescence ratio of 1.02.
Sequence AAGCCTGGCA has a switch fluorescence ratio of 1.04.
Sequence AAGCCTTGCA has a switch fluorescence ratio of 1.04.
AAGCCTTTAC gave a switch fluorescence ratio of 1.28.
AAGCGCCAG was tested, and the switch fluorescence ratio was 0.979.
AAGCGCTTT gave a switch fluorescence ratio of 1.01.
For AAGCGGCCTC, the switch fluorescence ratio was 1.01.
Work on AAGCGGGA yielded a switch fluorescence ratio of 1.02.
For AAGCGGTCTG, the switch fluorescence ratio was 0.994.
AAGCGTGCGT gave a switch fluorescence ratio of 0.99.
AAGCGTGGG showed a switch fluorescence ratio of 1.03.
With AAGCGTGTAG the switch fluorescence ratio was 1.08.
Sequence AAGCTAATGC has a switch fluorescence ratio of 1.35.
AAGCTATGG was tested, and the switch fluorescence ratio was 1.04.
Sequence AAGCTGATCC has a switch fluorescence ratio of 1.07.
AAGCTGCGC gave a switch fluorescence ratio of 1.12.
For AAGCTTAGGG, the switch fluorescence ratio was 1.01.
For AAGCTTGGAT, the switch fluorescence ratio was 0.973.
In the case of AAGCTTGGGC, the switch fluorescence ratio is reported as 1.03.
Sequence AAGCTTTGTA has a switch fluorescence ratio of 1.01.
AAGGAAGTAA was tested, and the switch fluorescence ratio was 1.04.
AAGGAATAGA was tested, and the switch fluorescence ratio was 0.951.
Sequence AAGGAATATT has a switch fluorescence ratio of 1.01.
AAGGAATCTG gave a switch fluorescence ratio of 0.98.
For AAGGAATGTT, the switch fluorescence ratio was 1.16.
With AAGGACACGC the switch fluorescence ratio was 1.02.
Work on AAGGACGCGC yielded a switch fluorescence ratio of 0.974.
For AAGGACGGT, the switch fluorescence ratio was 1.03.
With AAGGAGCATC the switch fluorescence ratio was 1.08.
In the case of AAGGAGGT, the switch fluorescence ratio is reported as 0.964.
With AAGGATGGTC the switch fluorescence ratio was 0.992.
Work on AAGGCAACAT yielded a switch fluorescence ratio of 0.976.
With AAGGCAGACA the switch fluorescence ratio was 1.03.
AAGGCCAGGG gave a switch fluorescence ratio of 1.04.
For AAGGCTACGG, the switch fluorescence ratio was 1.01.
Work on AAGGCTATTA yielded a switch fluorescence ratio of 1.
With AAGGCTGAG the switch fluorescence ratio was 1.02.
With AAGGGAAAC the switch fluorescence ratio was 0.978.
Sequence AAGGGCAATT has a switch fluorescence ratio of 1.02.
With AAGGGCACCT the switch fluorescence ratio was 1.05.
With AAGGGCCGAG the switch fluorescence ratio was 1.01.
Sequence AAGGGCCTCA has a switch fluorescence ratio of 0.982.
In the case of AAGGGCGGCG, the switch fluorescence ratio is reported as 0.981.
AAGGGGCTGC was tested, and the switch fluorescence ratio was 1.05.
Work on AAGGGTAAGG yielded a switch fluorescence ratio of 1.01.
With AAGGGTCCCC the switch fluorescence ratio was 1.03.
Work on AAGGGTGTGC yielded a switch fluorescence ratio of 0.922.
In the case of AAGGGTGTTA, the switch fluorescence ratio is reported as 0.962.
AAGGTACTCT gave a switch fluorescence ratio of 1.15.
With AAGGTAGCCT the switch fluorescence ratio was 0.999.
AAGGTAGCTC was tested, and the switch fluorescence ratio was 1.05.
AAGGTCCCCT showed a switch fluorescence ratio of 0.969.
For AAGGTCGTGC, the switch fluorescence ratio was 0.994.
AAGGTCTAAA showed a switch fluorescence ratio of 0.979.
For AAGGTGATGC, the switch fluorescence ratio was 1.07.
AAGGTGTTAG gave a switch fluorescence ratio of 1.02.
AAGGTTGAAT gave a switch fluorescence ratio of 1.02.
AAGTAATTAT was tested, and the switch fluorescence ratio was 1.03.
With AAGTAATTTT the switch fluorescence ratio was 0.971.
Sequence AAGTACACCC has a switch fluorescence ratio of 1.36.
AAGTACACGT gave a switch fluorescence ratio of 1.09.
Sequence AAGTACAGT has a switch fluorescence ratio of 1.32.
AAGTACGTGA was tested, and the switch fluorescence ratio was 1.21.
In the case of AAGTACTGCG, the switch fluorescence ratio is reported as 1.
With AAGTACTTTG the switch fluorescence ratio was 1.11.
With AAGTAGCCTC the switch fluorescence ratio was 1.04.
Sequence AAGTAGCTC has a switch fluorescence ratio of 1.03.
In the case of AAGTAGGGAC, the switch fluorescence ratio is reported as 0.963.
With AAGTAGTAAT the switch fluorescence ratio was 1.01.
With AAGTAGTGAT the switch fluorescence ratio was 1.01.
For AAGTATCGGT, the switch fluorescence ratio was 1.03.
AAGTATTATA gave a switch fluorescence ratio of 0.99.
Sequence AAGTCAATCG has a switch fluorescence ratio of 1.07.
For AAGTCATCAG, the switch fluorescence ratio was 1.04.
In the case of AAGTCCGAGA, the switch fluorescence ratio is reported as 1.03.
With AAGTCGGACT the switch fluorescence ratio was 1.01.
With AAGTCTAGTG the switch fluorescence ratio was 0.984.
AAGTCTATAC was tested, and the switch fluorescence ratio was 1.59.
Work on AAGTCTTCAA yielded a switch fluorescence ratio of 0.975.
In the case of AAGTCTTGCG, the switch fluorescence ratio is reported as 1.06.
With AAGTGCTGGA the switch fluorescence ratio was 1.02.
In the case of AAGTGGCACG, the switch fluorescence ratio is reported as 0.991.
AAGTGGGCAG showed a switch fluorescence ratio of 0.968.
Sequence AAGTGGTTC has a switch fluorescence ratio of 0.954.
With AAGTGTACCG the switch fluorescence ratio was 1.06.
Sequence AAGTGTGAGG has a switch fluorescence ratio of 1.
For AAGTGTTATC, the switch fluorescence ratio was 0.984.
AAGTTAGAAT was tested, and the switch fluorescence ratio was 0.988.
With AAGTTCATAA the switch fluorescence ratio was 1.
In the case of AAGTTCCAGG, the switch fluorescence ratio is reported as 1.17.
AAGTTGAGCC showed a switch fluorescence ratio of 1.03.
AAGTTGTAC was tested, and the switch fluorescence ratio was 1.26.
With AATAAAGTAC the switch fluorescence ratio was 1.31.
In the case of AATAAATTTT, the switch fluorescence ratio is reported as 0.993.
Work on AATAACATAA yielded a switch fluorescence ratio of 1.01.
For AATAAGGCGT, the switch fluorescence ratio was 1.04.
AATAAGGTGG showed a switch fluorescence ratio of 1.05.
In the case of AATAATATGT, the switch fluorescence ratio is reported as 1.02.
Work on AATACAACAG yielded a switch fluorescence ratio of 1.23.
For AATACATTTC, the switch fluorescence ratio was 1.06.
AATACCGTGC was tested, and the switch fluorescence ratio was 1.16.
AATACGCGTT was tested, and the switch fluorescence ratio was 0.98.
For AATACGTACT, the switch fluorescence ratio was 1.64.
AATACGTTGT gave a switch fluorescence ratio of 0.975.
Work on AATACTAGTA yielded a switch fluorescence ratio of 0.992.
For AATACTCGCT, the switch fluorescence ratio was 1.18.
Work on AATACTGTTA yielded a switch fluorescence ratio of 1.07.
Work on AATACTTAA yielded a switch fluorescence ratio of 1.06.
AATAGAAACT showed a switch fluorescence ratio of 0.983.
In the case of AATAGAATC, the switch fluorescence ratio is reported as 1.01.
Sequence AATAGCGAAC has a switch fluorescence ratio of 1.19.
Work on AATAGCGATG yielded a switch fluorescence ratio of 0.994.
In the case of AATAGCGCTG, the switch fluorescence ratio is reported as 1.02.
AATAGCTTCT was tested, and the switch fluorescence ratio was 1.03.
AATAGGGAAG showed a switch fluorescence ratio of 1.03.
AATAGGGGGC showed a switch fluorescence ratio of 0.922.
AATAGGGTCA was tested, and the switch fluorescence ratio was 1.02.
With AATAGTCCGG the switch fluorescence ratio was 0.982.
AATAGTGACT gave a switch fluorescence ratio of 0.991.
In the case of AATATAACTT, the switch fluorescence ratio is reported as 1.04.
Sequence AATATAGAGC has a switch fluorescence ratio of 1.02.
For AATATATGAC, the switch fluorescence ratio was 1.04.
For AATATCCCCC, the switch fluorescence ratio was 1.12.
AATATCGGGG gave a switch fluorescence ratio of 0.996.
AATATCTGAG gave a switch fluorescence ratio of 1.01.

— the supplement of paper PMC10126150
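Note: ATP exposure 15 min at 22 °C before imaging.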
